Among all 310,000 compounds or so, about 14,000 (4.5%) showed an effect of 50% or more. The effect is printed as a negative number. Some of the results follow. Where a SMILES comes first, the peptide text is derived from it. The star is where a group is joined. Cbz = O=C(OCc1ccccc1)*
biological target: human ether-à-go-go-related gene (hERG) potassium channel (human, UniProt Q12809); assay: primary screen, population patch clamp on CHO cells stably expressing hERG
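Also: peak tail current of the secondary pulse compared with the same well before compound.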

Sequence of human ether-à-go-go-related gene (hERG) potassium channel (Q12809 whole entry, looked up): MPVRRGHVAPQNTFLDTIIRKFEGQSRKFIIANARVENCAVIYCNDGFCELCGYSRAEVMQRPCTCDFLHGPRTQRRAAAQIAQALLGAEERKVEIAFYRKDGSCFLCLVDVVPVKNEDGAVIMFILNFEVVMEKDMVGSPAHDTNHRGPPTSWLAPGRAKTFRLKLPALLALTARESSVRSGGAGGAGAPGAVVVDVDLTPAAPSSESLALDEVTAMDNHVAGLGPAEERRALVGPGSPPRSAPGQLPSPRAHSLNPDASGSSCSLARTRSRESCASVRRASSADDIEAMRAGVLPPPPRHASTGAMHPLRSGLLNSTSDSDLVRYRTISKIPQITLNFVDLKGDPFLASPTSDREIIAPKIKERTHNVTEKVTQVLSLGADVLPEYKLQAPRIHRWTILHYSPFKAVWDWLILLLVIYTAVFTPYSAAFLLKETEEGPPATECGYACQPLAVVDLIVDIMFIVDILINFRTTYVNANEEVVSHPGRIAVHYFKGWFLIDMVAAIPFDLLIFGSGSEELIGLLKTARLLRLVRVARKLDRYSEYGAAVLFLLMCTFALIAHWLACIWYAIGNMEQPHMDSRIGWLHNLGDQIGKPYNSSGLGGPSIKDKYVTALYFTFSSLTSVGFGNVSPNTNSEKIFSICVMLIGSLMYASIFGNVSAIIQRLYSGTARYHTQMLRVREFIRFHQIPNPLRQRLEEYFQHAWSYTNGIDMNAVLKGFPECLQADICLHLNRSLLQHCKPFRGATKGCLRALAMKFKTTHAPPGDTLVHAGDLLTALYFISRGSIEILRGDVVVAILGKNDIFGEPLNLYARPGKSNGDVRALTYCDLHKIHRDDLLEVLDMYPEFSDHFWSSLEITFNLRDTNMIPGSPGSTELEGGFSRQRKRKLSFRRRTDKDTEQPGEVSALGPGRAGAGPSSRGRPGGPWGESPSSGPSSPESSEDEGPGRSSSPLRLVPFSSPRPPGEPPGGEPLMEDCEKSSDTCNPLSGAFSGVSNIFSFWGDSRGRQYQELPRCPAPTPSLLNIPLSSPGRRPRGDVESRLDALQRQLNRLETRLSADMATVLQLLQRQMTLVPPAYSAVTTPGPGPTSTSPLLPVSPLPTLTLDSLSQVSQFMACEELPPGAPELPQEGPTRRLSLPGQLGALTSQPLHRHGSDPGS

SMILES | hERG current change (%, negative = inhibition) at 10uM [%]
COc1cc2ccccc2cc1C(=O)Nc1ccc(Br)cn1 | 21.2
Clc1cccc(/C=N/Nc2ncnc3ccccc23)c1 | -18.3
Cc1ccc(C(=O)CN2C(=O)NC3(CCCCCC3)C2=O)c(C)c1 | 22
CN(Cc1cnn(-c2ccccc2)c1)C(=O)C1CCC(=O)N(C2CC2)C1 (centres unmarked) | -10.1
Cc1ccnc(NC(=O)COc2c(C)cc(C)cc2[N+](=O)[O-])c1 | 12.3
COc1ccc(C2c3[nH]c4ccccc4c3C[C@H]3C(=O)N(CC(C)C)CC(=O)N23)c(OC)c1 (some centres unmarked) | -10
Cc1ccc(C(=O)Nn2cnc3scc(-c4cccs4)c3c2=O)c(O)c1 | 11.6
COc1cc(OC)c(C(=O)N/N=C/c2ccoc2)cc1OC | 7.88
O=c1[nH]cc(O)c(=O)[nH]1 | 9.49
CC(C)c1ccc(C(=O)N2CCN(CCO)CC2)cc1.Cl | 3.21
CN1CCN(S(=O)(=O)c2ccc(Cl)nc2)CC1 | 5.86
Cc1ccccc1-c1nnn(CC(=O)Nc2ccc3c(c2)OCCO3)n1 | 4.87
CN(C1CCCCC1)S(=O)(=O)c1ccc2c(c1)c(=O)c(C(=O)N1CCc3ccccc3C1)cn2C | 0.174
CC(CNC(=O)C1CCCN(S(=O)(=O)N2CCOCC2)C1)c1ccccc1 (centres unmarked) | 14.1
COc1ccc(/C=N\NC(=O)c2cc(O)c(O)c(O)c2)cc1COc1ccc(C(=O)OCC(C)C)cc1 | 21
CC(=O)N1CCN=C1SCc1ccccc1Cl | 13
Cc1cccc(OCC(=O)N/N=C2/SCC(=O)N2Cc2ccco2)c1 | -25.4
Cc1cc2ccccn2c1C(=O)c1nc(N2CCOCC2)ncc1Cl | -38.5
CC1(C)O[C@@H]2C[C@H]3[C@@H]4CCC5=CC(=O)C=C[C@]5(C)[C@@]4(F)[C@@H](O)C[C@]3(C)[C@]2(C(=O)CO)O1 | 13.7

SMILES | hERG current change (%, negative = inhibition) at 10uM [%]
CCc1c(C)nc2ncnn2c1Nc1ccc(C)cc1 | -5.65
Cc1cccc(-c2ncc(CN3CCCC(CO)(Cc4ccccc4C)C3)cn2)c1 (centres unmarked) | -11.4
CC(=O)c1ccc(OCc2cc(C(=O)N3CCOCC3)no2)cc1 | 14.6
COC(=O)C(CO)NC(=O)C1CCCN1C(=O)CNC(=O)OCc1ccccc1 (stereo not drawn) (Cbz-Gly-Pro-Ser-OMe; configuration not given here) | 23.5
O=C(NC(=S)Nc1cccc(Cl)c1N1CCCC1)c1ccc(-c2cccc([N+](=O)[O-])c2)o1 | 27.7
COc1ccc(C(=O)NC(=S)N2CCN(C)CC2)cc1Br | 23.5
Nn1c(SCc2cccc(Br)c2)nnc1-c1cccnc1 | 28.2
Cc1ccc(C(=O)O/N=C(/c2nonc2N)N(C)C)cc1 | 2.33
COc1ccc(-c2nnc3sc(-c4cccs4)nn23)cc1OC | -4.36
Cc1cc2nc(CSc3ccc(Cl)cc3)cc(=O)n2[nH]1 | -7.37
Cc1ccc(N=C2NC(=O)CS2)cc1C | 21.3
COc1ccc2[nH]c3c(=O)n(CCCC(=O)NC4CCCCC4C)c(=S)[nH]c3c2c1 (centres unmarked) | 9.14
Cc1nn(CC(=O)NCC(C)c2ccccc2)c(=O)c2cc3occc3n12 (centres unmarked) | -3.5
CCc1ccccc1-n1nnnc1SCC(=O)Nc1ccc(N2CCN(C)CC2)cc1 | -26.6
CCNC(=S)N1CCN(c2ncccn2)CC1 | 2.38
C/C(=N\n1cnnc1)c1ccc(C#N)cc1 | 26
Cc1onc(-c2ccccc2)c1C(O)c1ccc(F)cc1 (centres unmarked) | 23.8
Fc1cccc(Oc2nc3ccccc3n3cccc23)c1 | 9.03
Cc1ccc(S(=O)(=O)N(CC(=O)NCCC2=CCCCC2)Cc2ccccc2F)cc1 | 2.42

SMILES | hERG current change (%, negative = inhibition) at 10uM [%]
CN(C)c1ccc(C(=S)N2CCN(C(=S)Nc3ccc(Cl)cc3)CC2)cc1 | 6.65
O=C(N/N=C\c1ccccn1)C1c2ccccc2Oc2ccccc21 | 8.54
Cc1[nH]c2ccccc2c1/C=N/NC(=O)c1ccc(N)cc1 | 11.2
CCOc1cc(S(=O)(=O)NC2CC(C)(C)NC(C)(C)C2)ccc1Cl | 6.46
CCCCn1c(N)c(N(Cc2ccccc2OC)C(=O)CN2C(=O)NC(C)(c3ccccc3)C2=O)c(=O)[nH]c1=O (centres unmarked) | 17.7
COc1ccc(O)c(/C=N/NC(=O)CCC(=O)Nc2ccc(F)cc2)c1 | 0.85
O=C(NCCCN1CCCC1=O)c1cccnc1 | 15.3
Cc1ccc(SCc2noc(C(=O)NCC3CCCO3)c2C(=O)O)cc1C (centres unmarked) | 12.1
Cc1cc(NC(=O)c2ccc(NC(=O)c3cccs3)cc2)no1 | -17
COc1ccc(NC(=O)CSc2nc3ccsc3c(=O)n2CCCCCC(=O)O)cc1 | 29.3
O=c1cc(O)nc2n1CCCS2 | 18.7
CCOc1ccc2cc(C#N)c(SCC(=O)N3CCOCC3)nc2c1 | 12
CCOC(=O)N1CCC(NC(=O)C2=CCN(S(=O)(=O)c3ccc(F)cc3)CC2)CC1 | -7.1
CC(CN1CCN(C)CC1)OC(=O)c1ccccc1Cl (centres unmarked) | 2.44
COc1cccc(NC(=O)NC2CC(=O)N(c3ccc4c(c3)OCCO4)C2)c1 (centres unmarked) | -11.2
O=C(Nc1cccc(Cl)c1N1CCCCC1)c1ccc(N2CCOCC2)c([N+](=O)[O-])c1 | -13.2
Cc1ccc(-c2cc(-c3ccccc3)c(C#N)c(Br)n2)cc1 | -4.18
CCN(CC)CCN1C(=O)C(O)=C(C(=O)c2cc3cccc(OC)c3o2)C1c1ccc(F)cc1 (centres unmarked) | 3.13
